# Measured values reported in PubChem BioAssay AID624418 (National Center for Advancing Translational Sciences (NCATS), 2012).
# The whole screen tested about 410,000 compounds, of which about 530 (0.13%) were called active. This list was built around the results that the source calls inconclusive (neither active nor inactive); the mix of calls is not that of the screen. Calls follow the shape of the dose curve; as a rule, active = well fitted inhibition curve with a large enough effect; inconclusive = small, poorly fitted or top-dose-only effect, or another doubt; inactive = no such curve, though single readings can be large or run the other way. Where the call is inconclusive, the potency comes from a doubtful curve fit.
# Assay: qHTS of GLP-1 Receptor Inverse Agonists: Cytotox Screen
# Settings: HEK293 cAMP-luciferase reporter cells, luminescence, 24 h; activity change, negative = inhibition: at 38.3 µM (top of the series) unless noted
# Summary of the method: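 Quantitative HTS format, 1536 wells, 200 cells/uL seeded. Compounds: 23 nL, 24 h, 37 °C. Detection: luciferase reagent, luminescence at 12 min RT; decreased signal taken as cytotoxic.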
# % is scaled to controls: 0 for no effect and ±100 for the full control effect; potency is read from the fitted curve at half-maximal effect.
Structure (SMILES),Potency,"activity change, negative = inhibition"
O=C(CCl)Nc1c(C(=O)Nc2ccc3c(c2)OCCO3)oc2ccccc12,"inconclusive: 28.2 µM [inhibitor, single point]",–
COc1cc(/C=N/N=C2/C(=O)Nc3ccccc32)cc(OC)c1O,"inconclusive: 10 µM [inhibitor, partial curve, poor fit]",–
CC1=C(C(=O)N(C(C)C)C(C)C)CC(CC(=O)NCc2cccc3ccccc23)C(=O)N1CCC1=CCCCC1 (configuration not stated),"inconclusive: 28.2 µM [inhibitor, single point]",–
N#CCSc1ccccc1NC(=O)CN1C(=O)NC(CCc2ccccc2)C1=O (configuration not stated),"inconclusive: 11.2 µM [inhibitor, single point]",–
COc1ccccc1/C=C/C(=O)NC(=S)NCC1CCCO1 (configuration not stated),"inconclusive: 20 µM [inhibitor, single point]",–
C[C@@H](NC(=O)c1nc[nH]c1C(=O)N[C@H](C)c1ccccc1)c1ccccc1,"inconclusive: 0.501 µM [inhibitor, full curve, poor fit]",–
CNC[C@@H](CC1CCCCC1)NC[C@H](CC(C)C)NCCc1cccc(C(F)(F)F)c1,"inconclusive: 28.2 µM [inhibitor, single point]",–
FC(F)(F)c1ccc(C2[C@H]3CN(Cc4cccnc4)[C@H](c4ccccc4)C34CC2(c2cccnc2)C4)cc1 (some centres not stated),"inconclusive: 10 µM [inhibitor, single point]",–
CCCn1c(=O)c(C(=O)NNC(=O)Cc2ccccc2)c(O)c2ccccc21,"inconclusive: 28.2 µM [inhibitor, single point]",–
COc1ccc(C(=O)Nc2cc(C(C)C)c(O)c(S(=O)(=O)c3ccc(OC)cc3)c2C)cc1,–,inactive: -3.33%
CCCCC(Sc1nc(N)c(NC(=O)c2ccc(OC)cc2)c(=O)[nH]1)C(=O)O (configuration not stated),"inconclusive: 14.1 µM [inhibitor, single point]",–
CCOC(=O)CSc1nc(-c2ccccn2)ncc1OC,"inconclusive: 12.6 µM [inhibitor, single point]",–
CCc1ccccc1NC(=O)CSC1=C(C#N)C(c2ccc3c(c2)OCO3)C2=C(CCCC2=O)N1 (configuration not stated),"inconclusive: 0.501 µM [inhibitor, full curve, poor fit]",–
c1ccc(-c2nc(-c3ccccn3)nc(-c3ccccn3)n2)nc1,"inconclusive: 10 µM [inhibitor, partial curve, poor fit]",–
COc1ccc(-c2ccc(CNc3ccc4[nH]c(=O)[nH]c4c3)o2)cc1Cl,"inconclusive: 14.1 µM [inhibitor, partial curve, poor fit]",–
Cc1cc(C)c(OCCCCCn2ccnc2)c(C)c1,"inconclusive: 28.2 µM [inhibitor, single point]",–
O=C(NCCCN1CCCC1)c1cc2c(Cl)nc3ccccc3c2s1,"inconclusive: 14.1 µM [inhibitor, single point]",–
CCCC(=O)NC(=S)Nc1ccc(Cl)cn1,"inconclusive: 28.2 µM [inhibitor, single point]",–
CC(=O)Nc1cccc(OCC(=O)/C=C2\N(C)c3ccccc3C2(C)C)c1,"inconclusive: 10 µM [inhibitor, partial curve, poor fit]",–
Oc1cccc(/C=N/N2CCCCC2)c1O,"inconclusive: 11.2 µM [inhibitor, single point]",–
Cc1cc(C)nc(-n2nc(C)cc2Nc2ccccc2)n1,"inconclusive: 1 µM [inhibitor, full curve]",–

Structure (SMILES),Potency,"activity change, negative = inhibition"
CCOc1ccc2nc(-c3ccccc3)[nH]c2c1,"inconclusive: 5.62 µM [inhibitor, full curve, poor fit]",–
COc1ccc(C(=O)Nc2ccc(Cl)cc2C(=O)NCc2ccco2)cc1OC,–,inconclusive: -32.5% [inhibitor]
CN(C)c1ccc(/C=C/C(=O)c2ccc(O)cc2)cc1[N+](=O)[O-],"inconclusive: 11.2 µM [inhibitor, single point]",–
O=C(NCc1ccco1)c1ccc2c(c1)CCO2,–,inactive: -8.44%
COc1cccc(C(=O)c2sc(NC(C)C)nc2N)c1,"inconclusive: 11.2 µM [inhibitor, single point]",–
COc1cc2c(cc1NC(=O)C(C)NCc1ccccc1)oc1ccccc12 (configuration not stated),–,inactive: 34.1%
Nc1ccc(Cn2ccc3c4c(N)nc(N)nc4ccc32)cc1,active: 7.94 µM,–
COc1ccccc1NS(=O)(=O)c1cccc(C(=O)NCC(c2ccco2)N(C)C)c1 (configuration not stated),–,inactive: 6.13%
CCCCCCSc1cccc(-c2nc3ccc(C)cn3c2NCc2ccccc2)c1,"inconclusive: 28.2 µM [inhibitor, single point]",–
CCCCCCCCCCn1c2c(c(=N)c3c1CCC3)CCC2,"inconclusive: 6.31 µM [inhibitor, partial curve]",–
Cc1ccc(Nc2nc(NCC3CC3)nc3ccsc23)c(C)c1,"inconclusive: 7.08 µM [inhibitor, partial curve]",–
Cc1ccc(C)c(N2CCN(C(=O)c3cc4c(=O)n(Cc5cccnc5)ccc4nc3C)CC2)c1,–,inactive: 0.281%
Cc1cccc(CS(=O)(=O)c2ncc(Cl)c(C(=O)Nc3ccc(F)cc3)n2)c1,"inconclusive: 5.62 µM [inhibitor, full curve, poor fit]",–
Cc1cc(C)n(-c2nc3cc(Cl)c(Cl)cc3nc2Nc2ccc(F)cc2C)n1,–,inactive: -2.16%
CCn1c(=O)c2cc(C(=O)Nc3cc(C)c(Cl)cc3OC)sc2c2ccccc21,–,inactive: 0.283%
O=C(Nc1ccccn1)c1cc2ccccc2o1,–,inactive: -0.861%
Cc1ccc(NC(=S)NCCN(C2CCCCC2)C2CCCC2)cc1C,"inconclusive: 11.2 µM [inhibitor, partial curve, poor fit]",–
O=C(c1ccccc1O)N1N=C(C(F)(F)F)CC1(O)c1ccc([N+](=O)[O-])cc1 (configuration not stated),"inconclusive: 10 µM [inhibitor, partial curve]",–
CN(C)Cc1ccccc1Sc1cccc2ccccc12,"inconclusive: 28.2 µM [inhibitor, single point]",–
Cc1ccc(NS(=O)(=O)c2ccc3[nH]c4c(c3c2)CCCC4)c(C)c1,"inconclusive: 12.6 µM [inhibitor, single point]",–
CN(/N=C/c1ccc2c(c1)OCO2)c1ccccc1,–,inactive: -9.61%
